Target: wild type and V82F/I84V mutant HIV protease
Assay: HIV protease inhibition, Ki for wild type and mutant enzymes
Conditions: V82F and I84V mutations vs wild type
From the text: Data from the present example are described in detail in Yoshimura et al., J. Virol., 76, 1349-1358 (2002).

| Structure (SMILES) | Ki values for wild type and mutant enzymes, effect of active site mutations |
| --- | --- |
| CC(C)CN(C[C@@H](O)[C@H](Cc1ccccc1)NC(=O)O[C@H]1CCOC1)S(=O)(=O)c1ccc(N)cc1 [Compound 2, Amprenavir] | dramatically affected |
| COc1ccc(S(=O)(=O)N(CC(C)C)C[C@@H](O)[C@H](Cc2ccccc2)NC(=O)O[C@H]2CO[C@H]3OCC[C@H]32)cc1 [Compound 1] | similar |

From US7285566B2, “Resistance-repellent retroviral protease inhibitors” (priority 2002, dated 2007)
